Test results published in the supplement of paper PMC3334620.
Whole data set: some 33,000 sequences, median “E-score (-0.5 to 0.5)” near -0.056, cut for the highest 2% near 0.38. Some of the results follow.

These sequences were tested against Stb4 (UniProt P50104) (assay: PBM E-score (8-mer binding enrichment) (E-score (-0.5 to 0.5)); higher = stronger / more preferred TF binding; most listed sequences are background and not binding sites). Details: protein concentration: 200 nM; construct: GST-DNA-binding domain.
How it was run: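 E-scores (a modified Wilcoxon-Mann-Whitney statistic) were assigned by the Universal PBM Analysis Suite to every ungapped eight-base word pooled with its reverse complement. The input came from universal all-10-mer Agilent arrays made double-stranded by primer extension and probed with GST-tagged yeast transcription factors at about 100-200 nM. Fluorescent anti-GST detected bound protein, and masliner normalised the scans.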

| Sequence | PBM E-score |
| --- | --- |
| CACTAAAG | -0.177 |
| CTTTGATC | 0.0214 |
| TAAAGGTA | -0.0791 |
| ATACCTCA | -0.174 |
| ATTACAAC | -0.0654 |
| CTGGATTC | -0.0742 |
| CAGCCCTG | -0.25 |
| ACTTCCTC | -0.0216 |
| CGCTTGAA | 0.0222 |
| CAATCCCA | -0.0535 |
| ATACATGG | -0.159 |
| ATTAATGA | 0.125 |
| ACGTGAGG | 0.0587 |
| ATCAGAGG | -0.212 |
| AAACAATC | -0.0819 |
| AAGTCGGC | 0.22 |
| AATTTACG | 0.136 |
| ACCAGTCG | 0.214 |
| ATCGTGTC | 0.113 |
| CAGAGAAA | -0.173 |
| AGGCGAAT | -0.189 |
| GGTACGAA | -0.0112 |
| GCTCACAC | -0.133 |
| ATGCTGGG | -0.021 |
| GAGATGCA | -0.126 |

| Sequence | PBM E-score |
| --- | --- |
| CTTTGATA | -0.072 |
| AGGAGGAG | -0.176 |
| CGGTGTTC | 0.121 |
| AAAGCCCC | -0.0774 |
| CAAAAGAA | -0.176 |
| CTCTGTGC | -0.0218 |
| CCATGCTC | -0.148 |
| CTTGTCTC | 0.0628 |
| CAAGATTA | -0.0362 |
| CAAAGCAG | -0.142 |
| AGGGGCGC | -0.0191 |
| AAACTTTC | 0.0709 |
| AAGGAGCC | 0.0359 |
| ACAGGCGT | -0.255 |
| ACTTATAT | 0.127 |
| ATCTTTAA | 0.0682 |
| AGGGTCGG | 0.314 |
| CGGGTATA | 0.418 |
| AGAGCACT | 0.00445 |
| CCCTTGCG | -0.289 |
| TATACCCA | 0.0355 |
| ATGCGTAA | -0.169 |
| CGCAAGTC | -0.0818 |
| AGTGTATC | -0.0707 |
| AGTCCCCG | 0.183 |

| Sequence | PBM E-score |
| --- | --- |
| AATTGATC | -0.0375 |
| AGTGAGAT | -0.104 |
| CATAAGGG | 0.0843 |
| CCGCTGGC | -0.24 |
| GAAACACC | 0.0674 |
| AGCCTATA | -0.222 |
| GCCCACTA | -0.103 |
| CACTGTCC | -0.0706 |
| GTACTTTA | -0.112 |
| CCCAGCCG | 0.172 |
| AACTGATA | -0.108 |
| CTGCAACC | -0.186 |
| CTCTCCGC | 0.0798 |
| CATTTGAA | 0.0134 |
| CGTGCTGC | -0.0945 |
| GTTAGTTA | 0.1 |
| AATAGATG | -0.00998 |
| GCCGAGCC | 0.463 |
| ACACTCGA | -0.24 |
| AGAGGCGG | 0.178 |
| ATGACCGA | 0.165 |
| CTACCCGA | 0.464 |
| AAAAGTTC | 0.0147 |
| GGTACCAA | 0.148 |
| ATTTTCTA | 0.0386 |

| Sequence | PBM E-score |
| --- | --- |
| AAACTCTG | -0.154 |
| CGGGCACC | 0.247 |
| GGACCTTA | 0.0863 |
| CGTACTAG | -0.196 |
| CCCTAGGC | -0.0789 |
| TAGTGAAA | -0.178 |
| GGGACTAA | 0.0567 |
| AAAGGTGC | -0.0349 |
| AGCTGCTC | -0.195 |
| CAGCTTAC | -0.0162 |
| AAGTCCAA | 0.0221 |
| ATCGTACC | 0.0152 |
| GGTAGGCA | -0.0581 |
| AATTTCCA | -0.00015 |
| CACGCAAA | -0.175 |
| AGGTAGAA | -0.167 |
| AAAAGGGC | -0.141 |
| CGAGTTGA | 0.133 |
| GCACGGAA | 0.327 |
| GCGCATCA | -0.151 |
| GGACCAGA | -0.17 |
| TAAGACCA | -0.237 |
| CTCCACCA | -0.15 |
| GGTCTAAA | -0.0767 |
| ACATACGG | 0.0543 |

| Sequence | PBM E-score |
| --- | --- |
| ACTTTCTA | -0.0964 |
| GAAACAAC | 0.153 |
| CGAGCTGC | 0.232 |
| AAGCGACC | 0.0468 |
| TACAGGGA | -0.0915 |
| CGTCGGAC | 0.269 |
| GGGGGCTA | -0.19 |
| AGAACTGG | 0.0328 |
| AACGACCA | -0.223 |
| AATACTGA | -0.226 |
| AATGGCAT | 0.0295 |
| GGAGGACA | -0.014 |
| ATGCTTCA | -0.163 |
| CCACCTTA | -0.186 |
| CAGTGTCC | -0.0717 |
| GTCAGGAA | -0.0135 |
| AACCGGCT | 0.23 |
| ACGCTGAT | -0.187 |
| GTAAAATA | -0.0636 |
| ATAGCTTG | -0.104 |
| AATGAGCG | 0.00898 |
| CGATATCC | 0.282 |
| ACGGCGTC | 0.0418 |
| CGTATAAC | -0.0797 |
| AATTGGTG | -0.156 |

| Sequence | PBM E-score |
| --- | --- |
| GCGTCCAC | 0.00263 |
| CATTTCCA | -0.196 |
| GCTTAAAA | -0.111 |
| ATACTGCC | 0.106 |
| ACATCTAT | 0.0848 |
| CTCCAGAA | -0.188 |
| AACAAGTC | -0.111 |
| AAGACATA | -0.116 |
| CTCGGGGA | 0.349 |
| GGACATAA | 0.0468 |
| AGCACCCC | -0.164 |
| AGTGATGA | -0.0977 |
| GTGAGTTA | -0.211 |
| CGCGGGAA | 0.295 |
| GGAGATCA | 0.0421 |
| CAACTGAA | -0.155 |
| ATGGGGCA | -0.23 |
| CCGCCGAA | 0.4 |
| ACCCAGGC | 0.0532 |
| CTCGCAAG | -0.203 |
| AGTATTAA | 0.0862 |
| CTCGCCCC | -0.0101 |
| ATAATAAG | -0.0502 |
| TAGTAAGA | -0.204 |
| AGGCTAAC | -0.0968 |

| Sequence | PBM E-score |
| --- | --- |
| CGGCGGTC | 0.1 |
| CCTCACTC | -0.0197 |
| CAACACCC | 0.0649 |
| GTGTTGTA | -0.113 |
| CGGGCCAC | 0.137 |
| CCATCCTA | -0.149 |
| ATTAACCC | 0.212 |
| ACTAGTGA | -0.213 |
| TAGAATCA | 0.036 |
| CTCCCTTA | -0.139 |
| CCCATGTC | -0.0325 |
| GCCCAAGC | -0.0211 |
| CACGGGAC | 0.214 |
| AATGCGAC | -0.0177 |
| GGTCGCCA | -0.106 |
| AGTAGCGC | -0.181 |
| GCTTGGAC | -0.253 |
| GCAGCCGC | 0.154 |
| CTAAATTA | 0.0401 |
| AAAACTTG | -0.165 |
| CTCCATCC | -0.0108 |
| AACAACCA | -0.0284 |
